# Among all 410,000 compounds or so, about 530 (0.13%) were called active. The inconclusive results got no clear call from the source; some entries with a clear call stand among them for comparison. Calls follow the shape of the dose curve; as a rule, active = well fitted inhibition curve with a large enough effect; inconclusive = small, poorly fitted or top-dose-only effect, or another doubt; inactive = no such curve, though single readings can be large or run the other way. Potencies of inconclusive entries are doubtful fits and often do not repeat.
# Test: qHTS of GLP-1 Receptor Inverse Agonists: Cytotox Screen
# Conditions: HEK293 cAMP-luciferase reporter cells, luminescence, 24 h; activity change, negative = inhibition: at 38.3 µM (top of the series)
# Method in brief: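 MLSMR compounds, 24 hr on cells at 37 deg C/5% CO2; luminescence after luciferase reagent (12 min RT). Inhibition counted as the undesired cytotoxic outcome.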
# % is scaled to controls: 0 for no effect and ±100 for the full control effect; potency is read from the fitted curve at half-maximal effect.
Structure (SMILES),Potency,"activity change, negative = inhibition"
CC12C(=O)N(c3nccs3)C(=O)C1(C)C1CCC2O1 (stereo not given),"inconclusive: 2.82 µM [inhibitor, partial curve, poor fit]",–
Cc1ncc(CO)c2c1Oc1nc(-c3ccccc3F)nc(SCC(=O)N(C)c3ccccc3)c1C2,–,inactive: -24.4%
CC(C)c1ccccc1NC(=O)Nc1nc(C(N)Cc2ccc(C(F)(F)F)cc2)cs1 (stereo not given),"inconclusive: 28.2 µM [inhibitor, single point]",–
O=C(COc1ccc(Cl)cc1)NCCN1CCCCC1,–,inactive: -0.296% [at 7.66 µM]
CN(Cc1ccc(F)cc1)C(=O)c1cccc(S(=O)(=O)N2CCN(c3ccc(F)cc3)CC2)c1,–,inactive: 11.6%
C=CCn1c(O)c(N=NC(=S)Nc2ccc(OC)c(Cl)c2)c2ccccc21,"inconclusive: 11.2 µM [inhibitor, partial curve, poor fit]",–
Cc1cc(C)n(-c2nc(Nc3ccccc3C(F)(F)F)nc(-n3nc(C)cc3C)n2)n1,–,inactive: -23.2%
Fc1cccc(-c2n[nH]c(=S)n2-c2ccccc2)c1,"inconclusive: 28.2 µM [inhibitor, single point]",–
CCOC(=O)Cc1nnc(Nc2ccc(C(=O)NC)cc2)c2ccccc12,"inconclusive: 2.51 µM [inhibitor, partial curve, poor fit]",–
COc1ccccc1/C=C/C(=O)Nc1ccc(N2CCOCC2)cc1,"inconclusive: 2.82 µM [inhibitor, partial curve, poor fit]",–
COc1ccccc1OCC(=O)NNC(=O)CSC(=S)N1CCCC1,–,inactive: -8.08%
CCn1c(N2CCN(C(=S)NCC(C)C)CC2)nc2ccccc21,"inconclusive: 11.2 µM [inhibitor, partial curve]",–
COc1ccc(S(=O)(=O)N2CCCCC2C(=O)O)cc1OC (stereo not given),–,inactive: 1.65%
CNCCCCOc1ccccc1-c1ccccc1,"inconclusive: 14.1 µM [inhibitor, single point]",–
S=C(NCc1ccc(Cl)cc1)NC12CC3CC(CC(C3)C1)C2,"inconclusive: 11.2 µM [inhibitor, single point]",–
CNc1cc(F)nc(F)n1,–,inactive: 9.47%
CC(=O)Nc1ccc(Sc2ncccc2C(=O)Nc2cc(Cl)cc(Cl)c2)cn1,–,inactive: -5.58%
COc1cc2sc(-c3ccc(S(C)(=O)=O)cc3)c(C#CCO)c2cc1OC,"inconclusive: 0.501 µM [inhibitor, full curve, poor fit]",–
CC(=O)c1ccc(Nc2cc(C)nc3c(C)cccc23)cc1,"inconclusive: 1.41 µM [inhibitor, full curve, poor fit]",–
CCOP(=O)(OCC)/C(=C/N1CCCCC1)NC(=O)c1ccccc1,–,inactive: -22.8%
CCN(CC)C(=S)NC(=O)c1cccnc1,"inconclusive: 10 µM [inhibitor, partial curve, poor fit]",–
CCOC(=O)C1=C(C)N=c2s/c(=C/c3cccc([N+](=O)[O-])c3O)c(=O)n2C1c1ccccc1 (stereo not given),"inconclusive: 5.62 µM [inhibitor, full curve, poor fit]",–
O=C(CCN1C(=O)/C(=C\c2ccccc2)SC1=S)N1CCCCC1,–,inactive: 4.58%

Structure (SMILES),Potency,"activity change, negative = inhibition"
CCC(Cn1nnc2ccccc2c1=O)NC(=O)Nc1cc(C)cc(C)c1 (stereo not given),–,inactive: 0.481%
COc1cccc(CN2CC(C(=O)NC3CCC3)CCC2=O)c1 (stereo not given),–,inactive: 2.67%
CCN(CC)c1ccc2nc3ccccc3[n+](CC)c2c1,active: 11.2 µM,–
CC(=O)Nc1ccc(S(=O)(=O)N2CCCC3CCCCC32)cc1 (stereo not given),"inconclusive: 12.6 µM [inhibitor, single point]",–
CCOC(=O)N1CCN(C(=O)CN2C(=O)NC(C)(c3ccc4ccccc4c3)C2=O)CC1 (stereo not given),–,inactive: 4.38%
COc1ccc(C2C(C(=O)Nc3ccccc3)=C(C)Nc3c(C(=O)Nc4ccccc4)cnn32)cc1 (stereo not given),"inconclusive: 11.2 µM [inhibitor, partial curve]",–
Cc1ccc(C(=O)NNC(=O)CSc2nnc3ccccn23)cc1,"inconclusive: 28.2 µM [inhibitor, single point]",–
Cc1ccc(C)c(CSc2nc(-c3ccccc3F)nc3c2Cc2c(CO)cnc(C)c2O3)c1,–,inactive: -3.6%
COc1ccc(CC2(CO)CCN(CC3=Cc4cc(Cl)ccc4OC3)CC2)cc1,"inconclusive: 17.8 µM [inhibitor, single point]",–
O=C(Nc1cccc(Cl)c1)Nc1nc(-c2ccc(Cl)cc2)cs1,"inconclusive: 31.6 µM [inhibitor, single point]",–
Cc1nnc(N/N=C/c2cc([N+](=O)[O-])c(N3CCC(C)CC3)cc2N2CCC(C)CC2)n1N,"inconclusive: 28.2 µM [inhibitor, single point]",–
O=C(Nc1ccc2c(c1)OCO2)N1CCN(c2ccccc2Cl)CC1,"inconclusive: 0.501 µM [inhibitor, full curve, poor fit]",–
c1ccc(Cn2nnnc2C(c2cccs2)N2CCCCCC2)cc1 (stereo not given),–,inactive: -0.416%
C#CCOCCOCCOCCNc1nc(N2CCN(C(=O)CCCCCCCCCCNC(=O)Cn3cc(CCCCCN)nn3)CC2)nc(N2CCN(C(=O)CCCCCCCCCCNC(=O)[C@H]([C@@H](C)CC)n3cc(CCCCCN)nn3)CC2)n1,"inconclusive: 28.2 µM [inhibitor, single point]",–
CCC(C(=O)OCC(=O)Nc1cc(C)ccc1OC)c1ccccc1 (stereo not given),–,inactive: -7.63%
O=Cc1ccc(N2CCCC2)c([N+](=O)[O-])c1,–,inactive: -8.91%
COc1ccccc1-n1nnnc1S(=O)(=O)Cc1ccc(Cl)cc1,"inconclusive: 12.6 µM [inhibitor, single point]",–
O=C1Nc2ccc3c(c2C1=Cc1cc2c(cc1Br)OCO2)OCO3,"inconclusive: 1.41 µM [inhibitor, partial curve, poor fit]",–
CCOc1ccc(-c2cc(C(=O)N3CCN(c4cc(Cl)ccc4C)CC3)c3ccccc3n2)cc1,–,inactive: 24.2%
CCN1CCN(c2cc(C)c3cc(NC(=O)c4cccs4)ccc3n2)CC1,"inconclusive: 31.6 µM [inhibitor, partial curve, poor fit]",–
Cc1ccc(Nc2nc3nonc3nc2Nc2cccc(C(F)(F)F)c2)cc1Cl,"inconclusive: 2.51 µM [inhibitor, full curve]",–
Cc1ccc(NC(=O)C(Cc2c[nH]c3ccccc23)NC(=O)OC(C)(C)C)c(C)c1 (stereo not given),"inconclusive: 25.1 µM [inhibitor, partial curve, poor fit]",–

# Source: PubChem BioAssay AID624418 (National Center for Advancing Translational Sciences (NCATS), 2012)
